Experimental data: PMC5892938
This is one part of the list. At the low end of the ranking the order means little.

Biological target: GST-SBP-SLBP (stem-loop binding protein) (UniProt Q14493)
Assay: targeted RNA Bind-n-Seq;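 note: DESeq read counts versus GST-SBP nonspecific binding control pulldown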
Settings: RBNS binding buffer: 25 mM Tris pH 7.5, 150 mM KCl, 3 mM MgCl2, 0.1% Tween, 0.5 mg/mL BSA, 1 mM DTT; 27 nM protein, 750 pM RNA pool; temperature not stated; high values mean tight binding

Sequence	binding signal (log2 fold change)
GGUCACGUCUCAAUCAACUCAAUCCCAGGAGUUUUCUCCUGUAAACUCAACAGCUCGCAGUCAAG	0.126
GGUCACGUCUCAAUCAACUCAAUCCCAGGAGUUUCCUCCUGUUAUCUCAACAGCUCGCAGUCAAG	0.0845
GGUCACGUCUCAAUCAACUCUAUUCCCAGGGAAAACCCUGGUUUACUCAACAGCUCGCAGUCAAG	0.219
GGUCACGUCUCAAUCAACUCUAUCGCAGGAGUUUCCUCCUGGUUUCUCAACAGCUCGCAGUCAAG	-0.00904
GGUCACGUCUCAAUCAACUCUUUCGAGGGGGGGAAAACCCCUUUACCCUCUCAAUCAACAGCUCGCAGUCAAG	0.258
GGUCACGUCUCAAUCAACUCUUCGGAGGGGGGGAAAACCCCUUUACCCUCAUCCUCAACAGCUCGCAGUCAAG	-0.311
GGUCACGUCUCAAUCAACUCAUCCCCCAGGGAAAGCCCUGGUAAAUUCAACAGCUCGCAGUCAAG	0.114
GGUCACGUCUCAAUCAACUCUUCGCCCAGGGAAAGCCCUGGUUAAUUCAACAGCUCGCAGUCAAG	0.0233
GGUCACGUCUCAAUCAACUCAUCGCCAGGAGUUUCCUCCUGCUUUUUCAACAGCUCGCAGUCAAG	0.108
GGUCACGUCUCAAUCAACUCUUUUCCCAGGGAAAUCCCUGGCAUUUUCAACAGCUCGCAGUCAAG	0.0544
GGUCACGUCUCAAUCAACUCUAUUCCCAGGGAAAUCCCUGGUAUUCUCAACAGCUCGCAGUCAAG	0.0945
GGUCACGUCUCAAUCAACUCUAUUUCCAGGGAAAACCCUGGUAUAUUCAACAGCUCGCAGUCAAG	-0.405
GGUCACGUCUCAAUCAACUCAUUCCCCAGGGAAAGCCCUGGCAAUCUCAACAGCUCGCAGUCAAG	-0.0474
GGUCACGUCUCAAUCAACUCCUCAGAGGGGGGGAAAACCCCUUUACCCUCAACCUCAACAGCUCGCAGUCAAG	-0.261
GGUCACGUCUCAAUCAACUCUAAAGAGGGGGGGAAAACCCCUUUACCCUCACUCUCAACAGCUCGCAGUCAAG	-0.625
GGUCACGUCUCAAUCAACUCCCUAGAGGGGGGGAAAACCCCUUUGCCCUCGUAAUCAACAGCUCGCAGUCAAG	0.101
GGUCACGUCUCAAUCAACUCCCUCGAGGGGGGGAAAACCCCUUUACCCUCCACAUCAACAGCUCGCAGUCAAG	-0.339
GGUCACGUCUCAAUCAACUCACUAGAGGGGGGGAAAACCCCUUUGCCCUCAAAAUCAACAGCUCGCAGUCAAG	-0.191
GGUCACGUCUCAAUCAACUCAUCUUCAGGAGUUUCCUCCUGUAAACUCAACAGCUCGCAGUCAAG	0.23

Sequence	binding signal (log2 fold change)
GGUCACGUCUCAAUCAACUCUUUAGAGGGGGGGAAAACCCCUUUACCCUCGUCAUCAACAGCUCGCAGUCAAG	-0.285
GGUCACGUCUCAAUCAACUCUAUCUCCAGGGAAAUCCCUGGUUUACUCAACAGCUCGCAGUCAAG	-0.0408
GGUCACGUCUCAAUCAACUCAAACGAGGGGGGGAAAACCCCUUUACCCUCAUACUCAACAGCUCGCAGUCAAG	0.0543
GGUCACGUCUCAAUCAACUCAAUCGAGGGGGGGAAAACCCCUUUACCCUCAUUUUCAACAGCUCGCAGUCAAG	-0.0897
GGUCACGUCUCAAUCAACUCUACUUCCAGGGAAAACCCUGGCAAAUUCAACAGCUCGCAGUCAAG	-0.0213
GGUCACGUCUCAAUCAACUCUCUAGAGGGGGGGAAAACCCCUUUGCCCUCACUAUCAACAGCUCGCAGUCAAG	0.386
GGUCACGUCUCAAUCAACUCUAGUCCCAGGGAAACCCCUGGCUUUUUCAACAGCUCGCAGUCAAG	0.0031
GGUCACGUCUCAAUCAACUCCUUAGAGGGGGGGAAAACCCCUUUACCCUCACUUUCAACAGCUCGCAGUCAAG	-0.247
GGUCACGUCUCAAUCAACUCAACUCCAGGAGUUUGCUCCUGCAUAUUCAACAGCUCGCAGUCAAG	0.226
GGUCACGUCUCAAUCAACUCCCCAGAGGGGGGGAAAACCCCUUUACCCUCCUAUUCAACAGCUCGCAGUCAAG	0.0854
GGUCACGUCUCAAUCAACUCAACUCCCAGGGAAAUCCCUGGCUAACUCAACAGCUCGCAGUCAAG	0.00474
GGUCACGUCUCAAUCAACUCAACUCCAGGAGUUUACUCCUGUUAAUUCAACAGCUCGCAGUCAAG	0.0799
GGUCACGUCUCAAUCAACUCCCCAGAGGGGGGGAAAACCCCUUUACCCUCAACAUCAACAGCUCGCAGUCAAG	-0.359
GGUCACGUCUCAAUCAACUCAAUCUCAGGAGUUUUCUCCUGUUAAUUCAACAGCUCGCAGUCAAG	0.179
GGUCACGUCUCAAUCAACUCUAUUUCCAGGGAAAGCCCUGGCUUAUUCAACAGCUCGCAGUCAAG	-0.203
GGUCACGUCUCAAUCAACUCUUCUCCAGGAGUUUUCUCCUGCUAUUUCAACAGCUCGCAGUCAAG	-0.113
GGUCACGUCUCAAUCAACUCUUUCCCAGGAGUUUACUCCUGUUAUCUCAACAGCUCGCAGUCAAG	0.0112
GGUCACGUCUCAAUCAACUCUUCUCCCAGGGAAAGCCCUGGUUAUGUCAACAGCUCGCAGUCAAG	-0.16
